According to article PMC6919601, “Identification of Plasmodium dipeptidyl aminopeptidase allosteric inhibitors by high throughput screening” (PLoS ONE, 2019):
“And” between values parts separate entries of the source, which are not always exact repeats. Identical values can stand only once. The campaign covered roughly 110,000 compounds. About 230 (0.21%) showed an effect of 50% or more. The list shows a part of the results.

Target: DPAP1 (Plasmodium falciparum, UniProt Q8IIJ9)
Assay: primary screen, percent inhibition; read by cleavage of a fluorogenic dipeptide substrate; higher = more effect of the substance
Set-up: species or system P. falciparum D10 trophozoite lysates; single well
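Note: 30 min substrate incubation versus DMSO and 10 µM JCP410 controls.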

Chain of DPAP1 (Q8IIJ9 whole entry, looked up): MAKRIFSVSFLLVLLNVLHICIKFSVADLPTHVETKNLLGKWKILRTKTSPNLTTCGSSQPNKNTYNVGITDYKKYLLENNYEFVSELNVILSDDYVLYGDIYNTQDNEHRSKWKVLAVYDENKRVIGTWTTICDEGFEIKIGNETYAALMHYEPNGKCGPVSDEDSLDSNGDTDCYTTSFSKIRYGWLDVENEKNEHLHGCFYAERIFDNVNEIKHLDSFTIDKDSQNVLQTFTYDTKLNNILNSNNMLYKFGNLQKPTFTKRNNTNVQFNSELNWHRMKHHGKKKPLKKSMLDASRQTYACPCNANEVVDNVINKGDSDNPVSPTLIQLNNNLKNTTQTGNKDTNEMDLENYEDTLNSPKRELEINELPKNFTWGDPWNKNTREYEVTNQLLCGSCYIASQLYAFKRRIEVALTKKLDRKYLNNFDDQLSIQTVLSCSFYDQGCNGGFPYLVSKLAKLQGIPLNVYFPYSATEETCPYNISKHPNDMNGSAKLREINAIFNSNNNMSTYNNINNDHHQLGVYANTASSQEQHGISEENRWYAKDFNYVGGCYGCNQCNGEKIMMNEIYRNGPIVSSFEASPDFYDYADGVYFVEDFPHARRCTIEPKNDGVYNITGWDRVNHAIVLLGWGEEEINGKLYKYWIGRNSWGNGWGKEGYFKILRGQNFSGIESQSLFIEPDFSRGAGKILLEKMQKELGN

Point of comparison: `COc1ccc(C2C3=C(O)CC(C)(C)CC3=NC3=C2C(=O)CC(C)(C)C3)cc1` (stereo not drawn), “% Inhibition @ 10 uM” value 4.67%. Against it:
- C=Cc1cccc(C(=O)N[C@@H](CC(C)C)C(=O)NCC#N)c1 — lower, 0.174%
- COCCNC(=O)C1CCC(=O)N1Cc1ccc(F)cc1 (stereo not drawn) — lower, -1.79%
- FC(F)(F)COc1nc(NCc2ccccc2)nc(OCC(F)(F)F)n1 — lower, 2.6%
- O=c1[nH]c(/C=C/c2cc(Br)cc(Br)c2O)c([N+](=O)[O-])c(=O)[nH]1 — lower, 2.26%
- CCOC(=O)C(Cc1c[nH]c2ccccc12)NC(=O)C(C)(C)C (stereo not drawn) — lower, -3.48%
- Clc1ccc(-c2ccc(CN3CCSCC3)o2)cc1 — lower, -3.15%
- CCC(=O)NC(C)c1ccc(Br)cc1 (stereo not drawn) — lower, 0.177%
- C#CCN1C(=O)S/C(=C\c2ccc(OC)c(C)c2OC)C1=O — lower, -2.76%
- OCCOCCN1CCN(CC2CC=CCC2)CC1 (stereo not drawn) — lower, -1.21%
- Cc1nc(=O)c(-c2ccccc2)c(C)n1CCC12CC3CC(CC(C3)C1)C2 — higher, 5.49%
- Cc1nn(-c2ccc(Cl)cc2)c(O)c1/C=N/c1ccc(SC#N)cc1 — lower, 2.36%
- CN1C(=O)C(=Cc2ccc3c(c2)OCO3)C(=O)N(C)C1=O — lower, 1.9%
- COc1ccc(C2C(C#N)=C(N)N(c3ccc(Br)cc3F)C3=C2C(=O)CCC3)cc1O (stereo not drawn) — lower, -2.54%
- c1ccc(CCN2CCC(NC(Cc3ccccc3)c3ccccc3)CC2)cc1 (stereo not drawn) — lower, -3.27%
- COc1ccc(C(=O)/C=C/c2ccc(F)cc2)c(OC)c1 — lower, -3.55%
- COc1ccc(NC(=O)CC2SCCNC2=O)cc1 (stereo not drawn) — lower, -7.75%
- CCCNc1nc(N2CCOCC2)nc(N2CCOCC2)n1 — lower, -1.48%
- COC(=O)C1=C(C)N=c2s/c(=C/c3ccc(OC)cc3OC)c(=O)n2C1c1cccs1 (stereo not drawn) — higher, 6.51%
- CCOc1cc(C2C3=C(O)CCCC3=Nc3ncnn32)ccc1OC(F)F (stereo not drawn) — lower, -3.37%
- CN(C)CCCOc1ccc2c(c1)Sc1ccccc1CC2=O — lower, -4.12%
- COc1ccccc1N1CCN(C(=O)c2cc(Cl)ccc2Cl)CC1 — lower, 4.53%
- CCn1cc(C(=O)OCC(=O)N2CCCC(C)C2)c(=O)c2ccc(C)nc21 (stereo not drawn) — higher, 7.76%
- C1CCCC(NCCN2CCOCC2)CC1 — lower, -9.34%
- COc1ccc(CCNc2nc3nc(C)c(C)nc3n2C)cc1OC — lower, -7.61%
- O=C(O)c1ccccc1C(=O)OCCO — lower, 4.55%
- COc1ccc(-c2noc(CN(C(=O)CN(C)S(=O)(=O)c3ccc(Cl)cc3)C(C)C)n2)cc1 — lower, -1.22%
- Cn1c2c(c(=O)n(C)c1=O)C(c1ccccc1Cl)C(C#N)=C(N)O2 (stereo not drawn) — lower, -6.62%
- Cc1ccc(-n2nc3c(=O)n(CCCC(=O)O)nc(C)c3c2C)cc1 — lower, 1.63%
- CC(C)OCCCNc1ncnc2onc(-c3ccc(F)cc3)c12 — lower, -2.71%
- CC(C)CC(NC(=O)c1ccc(NC(=O)N(C)[C@H]2CCN(Cc3ccccc3)C2)cc1)C(=O)NCC#N (stereo partly drawn) — lower, -7.36%
- CCOC(=O)c1c(C)[nH]c(C)c1S(=O)(=O)NCC(=O)Nc1nc(C)cs1 — lower, -6.86%
- CCCN(CCO)Cc1ccc(N(C)C)cc1 — lower, -3.57%
- CCCSC(=S)NC1CCS(=O)(=O)C1 (stereo not drawn) — higher, 12%
- Cc1c(C(=O)N2CCCN(Cc3ccccc3Cl)C2)sc2nc3n(c(=O)c12)CCCCC3 — lower, -4.11%
- COc1ccc(-c2cc(N)n(S(=O)(=O)c3ccc(Br)cc3)n2)cc1OC — lower, 2.34%
- CCOc1ccccc1C(=O)Nc1cccc(NC(=O)c2ccccc2OCC)n1 — lower, -4.43%
- O=C(CC(c1ccc(F)cc1)N1Cc2ccccc2C1=O)N1CCCCC1 (stereo not drawn) — lower, -5.92%
- Cc1ccccc1-n1nc2c(c1NC(=O)c1ccc(Cl)cc1Cl)CS(=O)(=O)C2 — lower, -1.43%
- CC(C)(C)c1cc(C(=O)Nc2cccc([N+](=O)[O-])c2)cc(C(C)(C)C)c1 — lower, -1.45%
- Cc1cc(C)n2nc(S(=O)(=O)N(C)Cc3ccccc3)nc2n1 — lower, -1.24%
- CCN(CC)C(=O)CN1C(=O)C(=O)c2ccccc21 — higher, 7.87%
- CC1=CC2=NC(=O)/C(=C\c3cccn3CCCOc3cc(C)c(Cl)c(C)c3)C(=N)N2O1 — lower, -3.23%
- CC1=NOC(=O)/C1=C\c1cc(Br)c(O)c(Br)c1 — lower, 0.487%
- N#CC1=C(N)OC2=C(C(=O)CCC2)C1c1ccc(Br)cc1F (stereo not drawn) — lower, 0.983%
- Cc1ccccc1-c1nc(CS(=O)(=O)CC(=O)N2CCCCCC2)c(C)o1 — lower, -3.7%
- O=C(NC1CCCCCC1)c1ccc(COCC(F)(F)C(F)F)o1 — higher, 6.03%
- Cc1nn(C(C)C(=O)N2CCN(C3CCCCC3)CC2)c(=O)c2nn(-c3ccccc3)c(C)c12 (stereo not drawn) — lower, -2.87%
- COc1ccc(C(=O)Nc2ccc(C)c(C)c2)cc1Br — lower, 0.145%
- C=C(C)Cn1c(SCC(N)=O)nc2c(c1=O)C1(CCCC1)Cc1ccccc1-2 — lower, 2.69%
- COc1ccc(Cl)cc1NS(=O)(=O)c1c(C)cc(C)cc1C — lower, 0.815%
- Cn1cc(Br)c(C(=O)Nc2ccc3c(c2)OCCO3)n1 — lower, -3.05%
- CC(C)c1ccc(/C=C/C(=O)Nc2ccc(C(C)C)cc2)cc1 — lower, -1.59%
- COc1ccccc1N1CCN(C2CC(=O)N(c3ccccc3)C2=O)CC1 (stereo not drawn) — lower, -2.32%
- CCC(C)C(Nc1ncnc2sc3c(c12)CCC3)C(=O)O (stereo not drawn) — lower, -1.47%
- N=C1/C(=C/c2ccc3c(c2)OCO3)C(=O)N=C2SC=C(c3ccccc3)N12 — lower, 1.52%
- Cc1ccccc1NC1=C(C(=O)c2ccccc2)N(C)S(=O)(=O)c2ccccc21 — lower, -4.49%
- CN1C(=O)S/C(=C\c2ccc(OCc3ccc(F)cc3)c(Br)c2)C1=O — lower, 2.17%
- CN1C/C(=C\c2ccccc2F)C(=O)/C(=C/c2ccccc2F)C1 — higher, 14.5%
- CC(C(=O)O)N1C(=O)C2C3CC(C2C1=O)C1C(c2ccc(O)cc2)c2sc(O)nc2SC31 (stereo not drawn) — lower, -7.27%
- CC(CCCC(C)(C)O)NC1Cc2ccccc2C1 (stereo not drawn) — lower, -1.81%
- O=C(O)CCCCCN1C(=O)C2CCCCC2C1=O (stereo not drawn) — lower, 1.02%
- O=C(O)CC12CC3CC(C1)CC(n1ncc(NC4CCCCCCC4)c(Cl)c1=O)(C3)C2 — lower, -8.58%
- CCCCNc1ncnc2c1[nH]c1ccc(C)cc12 — lower, -7.23%
- Cc1nnc(NC(=O)COc2c(C)ccc(C)c2C)s1 — higher, 6.76%
- Cc1ccc(C(=O)Nc2sc3c(c2C(=O)N2CCOCC2)CCC(C)C3)cc1 (stereo not drawn) — lower, 0.873%
- O=C(c1cc(F)c(F)cc1Cl)n1cccn1 — lower, -1.4%
- CCN1CCCC1CNC(=O)c1ccc(F)cc1 (stereo not drawn) — lower, 0.0538%
- CN1CCN(c2ccc(C(=O)N[C@@H](Cc3cc(Cl)c(O)c(Cl)c3)C(=O)NCC#N)cc2)CC1 — lower, -3.25%
- CCOc1ccc(S(=O)(=O)Nc2ccccc2C(=O)NC(C)C)cc1 — lower, -1.24%
- CCOC(=O)C1=C(C)N=c2s/c(=C/c3ccccc3)c(=O)n2C1c1ccc(C)cc1 (stereo not drawn) — higher, 8.01%
- CC(C)CCNC(=O)c1nnc(Cc2ccc(Cl)cc2)o1 — lower, -5.29%
- CCOC(=O)CN1CCN(c2ccccc2Cl)CC1 — lower, -3.77%
- CN1C(=O)C(=CNc2ccccc2Oc2ccccc2)C(=O)N(C)C1=O — lower, 2.08%
- Cc1nn(C)c2c1c(C(F)(F)F)cc(=O)n2CC(=O)NCc1ccco1 — lower, 0.389%
- NC(=S)N/N=C/C=C/c1ccccc1 — lower, 4.35%
- COc1cc(O)ccc1C1CC(=O)Nc2c1c(=O)nc(SCc1ccc(Cl)cc1)n2C (stereo not drawn) — lower, 2.25%
- O=S(=O)(c1ccc(Cl)cc1)c1nnn2c1nc(NCc1ccco1)c1sccc12 — lower, 2.49%
- COc1cc(CNC(=O)C2CCN(c3ncccn3)CC2)cc(OC)c1OC — lower, 0.758%
- Cc1csc(NC(=O)C(CC(C)C)N2Cc3ccccc3C2=O)n1 (stereo not drawn) — higher, 4.84%
- CN(Cc1ccccc1)C(=O)COc1ccc(S(=O)(=O)NC2CCCC2)cc1 — lower, -3.45%
- CCOc1ccc(C2(c3ccc(OCC)cc3)c3ccccc3Nc3ccccc32)cc1 — lower, 1.2%
- COc1ccccc1C(=O)CC#N — lower, -2.88%
- COc1cc(OC)cc(C(=O)N2CCOCC2)c1 — lower, -2.78%
- O=C(Cn1ccc2cc(S(=O)(=O)N3CCCC3)ccc21)NC1CCN(Cc2ccccc2)CC1 — lower, 3.13%
- Cc1ccc(C)c(S(=O)(=O)NC(C)C(=O)Nc2ccc(Br)cc2F)c1 (stereo not drawn) — lower, 0.709%
- CC(C)C1Cc2c(sc3nc(SCC(=O)Nc4ccccc4)nc(N)c23)CO1 (stereo not drawn) — lower, 0.812%
- CN1C(=O)NC(c2ccccc2)C2=C1CC(C)(C)CC2=O (stereo not drawn) — lower, -4.49%
- CCOC(=O)c1cc2c(=O)n3ccccc3nc2n(CC2CCCO2)/c1=N/C(=O)c1cccnc1 (stereo not drawn) — lower, -1.3%
- CS(=O)(=O)N1CCC(C(=O)Nc2ccc(F)c(Cl)c2)CC1 — lower, 3.13%
- O=[N+]([O-])c1ccc(N2CCN(Cc3cccc(C(F)(F)F)c3)CC2)cc1 — lower, -0.0404%
- O=S(=O)(NCc1nc2ccccc2[nH]1)c1ccc(Cl)c(Cl)c1 — lower, -3.66%
- Cc1cc(/C=C2/SC(=O)NC2=O)c(C)n1-c1ccncc1 — lower, -0.891%
- NC1=NC(=O)/C(=C/c2ccc(-c3cccc(C(=O)O)c3)o2)S1 — lower, 1.13%
- CCN(CC)C(=O)c1ccc(CS(=O)(=O)c2ccc(OC)cc2)o1 — lower, 3.77%
- CCc1ccc(OCC(=O)Nc2cccc(Cl)c2)cc1 — higher, 7.67%
- COc1ccc2nc(/N=C/c3nc(-c4ccc(Cl)cc4)oc3O)sc2c1 — lower, -2.27%
- Cc1ccc(C(=O)c2oc3ccccc3c2NC(=O)C(C)(C)C)cc1 — lower, 3.93%

For `COc1ccc(CC(=O)N2N=C(c3ccncc3)CC2(O)C(F)(F)F)cc1OC` (stereo not drawn), the “% Inhibition @ 10 uM” value was 1.92% and 2.08%.
